Measured values: article PMC4336329 (PLoS ONE, 2015)
In all, about 310,000 compounds went through this assay and about 2,200 (0.71%) showed an effect of 50% or more. The effect is printed as a negative number. This is one part of the list.

These molecules were tested against human ether-à-go-go-related gene (hERG) potassium channel (human, UniProt Q12809) (assay: primary screen, population patch clamp on CHO cells stably expressing hERG).
Sequence of human ether-à-go-go-related gene (hERG) potassium channel (Q12809 whole entry, looked up): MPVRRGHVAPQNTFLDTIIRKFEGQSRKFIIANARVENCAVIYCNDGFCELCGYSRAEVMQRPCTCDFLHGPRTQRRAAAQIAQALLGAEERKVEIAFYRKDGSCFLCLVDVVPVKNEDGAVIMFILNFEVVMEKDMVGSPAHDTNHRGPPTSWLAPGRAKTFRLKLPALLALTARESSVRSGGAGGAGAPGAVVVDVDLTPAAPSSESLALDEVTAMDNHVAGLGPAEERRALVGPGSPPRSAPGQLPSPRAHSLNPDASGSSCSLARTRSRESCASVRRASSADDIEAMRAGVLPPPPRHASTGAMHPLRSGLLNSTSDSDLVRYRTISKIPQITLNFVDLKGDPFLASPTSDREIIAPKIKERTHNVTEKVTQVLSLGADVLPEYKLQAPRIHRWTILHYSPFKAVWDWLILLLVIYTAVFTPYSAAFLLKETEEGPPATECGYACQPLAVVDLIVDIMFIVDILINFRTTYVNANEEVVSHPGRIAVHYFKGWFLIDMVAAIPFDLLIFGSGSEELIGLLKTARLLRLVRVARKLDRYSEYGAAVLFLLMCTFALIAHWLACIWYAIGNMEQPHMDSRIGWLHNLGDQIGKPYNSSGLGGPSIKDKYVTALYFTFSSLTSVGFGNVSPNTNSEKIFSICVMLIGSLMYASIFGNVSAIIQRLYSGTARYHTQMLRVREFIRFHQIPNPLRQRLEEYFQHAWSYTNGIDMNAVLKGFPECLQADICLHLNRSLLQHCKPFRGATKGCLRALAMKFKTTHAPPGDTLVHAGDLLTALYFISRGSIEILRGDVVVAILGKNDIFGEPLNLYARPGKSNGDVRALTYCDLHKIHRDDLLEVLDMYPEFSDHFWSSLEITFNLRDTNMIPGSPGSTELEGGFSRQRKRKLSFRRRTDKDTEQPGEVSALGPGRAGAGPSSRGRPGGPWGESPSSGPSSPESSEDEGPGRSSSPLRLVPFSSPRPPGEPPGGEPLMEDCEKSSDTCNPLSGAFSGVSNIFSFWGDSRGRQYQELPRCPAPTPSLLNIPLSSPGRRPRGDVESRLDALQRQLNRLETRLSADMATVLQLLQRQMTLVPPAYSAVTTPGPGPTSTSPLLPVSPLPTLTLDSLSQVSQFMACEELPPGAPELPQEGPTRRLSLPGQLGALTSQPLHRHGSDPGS

| Structure (SMILES) | hERG current change (%, negative = inhibition) at 1uM |
| --- | --- |
| C/C(=N\NC(=O)Cc1c(C)[nH][nH]c1=O)c1cccc(Br)c1 | 8.02% |
| COc1ccc(S(=O)(=O)Nc2ccccn2)c(C)c1C | 15.9% |
| COc1ccc(C(=O)N(Cc2sccc2C)C2CCS(=O)(=O)C2)cc1 (stereo not drawn) | -6.49% |
| Clc1ccc(N=C2SCCS2)cc1 | 9.23% |
| CCC(C)(C)n1nnnc1C(c1ccc(C)cc1)N1CCSCC1 (stereo not drawn) | -3.34% |
| C/C(=N\NC(=O)CC#N)C1COc2ccccc2O1 (stereo not drawn) | 12.1% |
| COC(=O)c1ccccc1NC(=O)CCCn1nc([N+](=O)[O-])c(Br)c1C | 5.37% |
| O=C(Nc1cccc(C(F)(F)F)c1)c1cccc(NS(=O)(=O)c2ccc(O)c(C(=O)O)c2)c1 | 11.4% |
| Cc1ccc(C(=O)NNC(=S)NC(=O)c2ccccc2)cc1 | 12.5% |
| O=C1c2ccccc2C(=O)N1c1ccc(Cl)cc1 | 15.6% |
| NC(=O)N[C@@H](Cc1c[nH]c2ccccc12)C(=O)OCC(=O)N1CCCCC1 | 11.8% |
| CCOC(=O)c1cc(-c2ccc3c(c2)OCO3)nc2onc(C)c12 | 10.9% |
| CCOC(=O)N1CCN(C(=O)c2c(-c3ccccc3)noc2C)CC1 | 1.6% |
| CCC(=O)N(CCO)Cc1cc2ccc(C)c(C)c2[nH]c1=O | -11% |
| CC1(C)CC(=O)C(Sc2ccccc2)=C(O)C1 | 15.2% |
| O=C(NCc1ccco1)/C(=C/c1ccco1)NC(=O)c1ccccc1 | 12.3% |
| CCOc1ccc(NS(=O)(=O)c2ccc3c(c2)CCN3C(=O)C2CCC2)cc1 | 12.4% |
| C[C@H](NC(=O)CCCOc1ccc(Cl)cc1Cl)c1nnc2ccccn12 | -5.04% |
| O=C(CCc1ccc(S(=O)(=O)N2CCOCC2)cc1)Nc1nccs1 | 5.43% |
| O=c1cc2oc3cc(O)c(O)cc3c(-c3ccccc3[N+](=O)[O-])c-2cc1O | 8.61% |
| CC12CN3CC(C)(CN(C1)C3c1ccc(Cl)cc1)C2 (stereo not drawn) | 13.5% |
| Cn1nc(C(=O)N2CCOCC2)c([N+](=O)[O-])c1C(=O)N1CCOCC1 | -36.6% |
| Nc1nc(Nc2ccccc2)sc1C(=O)c1ccccc1 | 4.24% |

| Structure (SMILES) | hERG current change (%, negative = inhibition) at 1uM |
| --- | --- |
| Cc1cc(C)nc(OC(C(=O)O)C(OCC(C)C)(c2ccccc2)c2ccccc2)n1 (stereo not drawn) | 15.9% |
| Cc1ccc(Nc2nnc(SCC(=O)Nc3ncc(C(F)(F)F)cc3Cl)s2)cc1 | 9.66% |
| COc1ccccc1NC(=O)Cn1c(C)nc2c(sc(=S)n2Cc2ccco2)c1=O | -8.44% |
| CCOC(=O)N1CCN(C(=O)CC(=O)Nc2ccc3nc4n(c(=O)c3c2)CCCCC4)CC1 | 10% |
| CC(=O)Nc1ccc(OCCOc2ccc(/C=C3\C(=N)N4N=C(C)SC4=NC3=O)cc2)cc1 | 15.5% |
| NC(=O)C1(c2ccccc2)CCCN1C(=O)c1ccc(Br)cc1 (stereo not drawn) | 5.44% |
| O=C(O)CCc1nn2c3ccccc3nc2n(CCN2CCCCC2)c1=O | 12.3% |
| Cc1ccc(N(CC(=O)NCc2ccco2)C(=O)CCC(=O)Nc2nccs2)c(C)c1 | 4% |
| CC(C)CNC(=O)N[C@@H](CC(C)C)C(=O)O | 9.55% |
| CCOc1cc(C(=O)N2CCC(CC3CC(c4cccc(Br)c4)=NO3)(C(=O)NCC3CCCCC3)CC2)cc(OCC)c1OCC (stereo not drawn) | 0.761% |
| CCCn1nnnc1NCc1cccc(OC)c1 | 14.5% |
| COc1ccc(NC(=O)CC(c2ccccc2)c2ccco2)cc1 (stereo not drawn) | 7.48% |
| Cc1ccc(S(=O)(=O)N2CC3(C)CN(S(=O)(=O)c4ccc(C)cc4)CC(C)(C2)C3)cc1 | 7.77% |
| COc1cccc(NC(=O)C(Cc2ccccc2)n2cccc2)c1 (stereo not drawn) | 15% |
| O=C(CNS(=O)(=O)c1ccccc1)OCC(=O)c1cccc([N+](=O)[O-])c1 | -1.03% |
| O=C(CN1CCC(n2nnc3cc(F)ccc32)CC1)Nc1ccccc1N1CCOCC1 | -42.2% |
| COc1ccc(N(C)S(=O)(=O)c2cccc(C(=O)NCc3ccc4c(c3)OCO4)c2)cc1 | 11.5% |
| CSc1ccc(CN(C)C(=O)CN2C(=O)NC3(CCCC3)C2=O)cc1 | 9.41% |
| O=C(Nc1ccc(Nc2ccccc2)cc1)c1ccc(Br)o1 | 10.2% |
| CSCCC(NC(=O)c1ccc(C)o1)C(=O)O (stereo not drawn) | 13% |
| O=C(N/N=C1\CCCc2c1[nH]c1ccc(Cl)cc21)c1ccncc1 | 3.55% |
| CCOC(=O)N1CCN(c2cc(=O)n(-c3ccccc3C)c(=O)[nH]2)CC1 | 10.2% |
